Measured values: patent US20100055093A1 (RECEPTOR BIOLOGIX, published 2010)

Biological target: the molecule itself
Assay: self-association by size exclusion chromatography (apparent over calculated molecular weight)

B1: HFD100T (HER[…]/Fc with His tag) (Fc fusion)
chain: not shown
M. Wt. (ap):M. Wt.: 5.39
